Test results as given in the RNAGym collection of RNA variant scans (doi:10.7554/elife.90254).
The source gives no read counts; variants with many changes may rest on few reads.

B1: LINE1-mini (parent)
chain: GGCAGAGCUCAACACAGCGUGGCAAAGUGGCUGUGGCUAGACUGCC

Variants of: B1
Assay: self-cleavage, relative activity (ratio to wild type); higher = more cleavage; in vitro, sequencing; the parent is a self-cleaving ribozyme

Variant	self-cleavage
GGCAGAACUCAACACAACGUGGCAAAGUGGCUGUUGCUAGACUACC [G7A G17A G35U G44A]	0.04
GGCAGAACUCAACACACCGUGUCAAAGUGGCUGUGGCUAGACUGCC [G7A G17C G22U]	0.17
GGCAGACCUCAACACAGCGUGGCACAGUGGCUGUGGCUAGACUCCC [G7C A25C G44C]	0.06
GGCAGAACGCAAUACAGCGUGUCAAAGUGGCUGGGGCUAGACUGCA [G7A U9G C13U G22U U34G C46A]	0.02
GGCAGAACUCAACACAGCUUGGCAAAGUGGGUUUGGCUAGACUGCC [G7A G19U C31G G33U]	0.11
GGCAGAACGCAAAACAGCAUGGCAAAGUGGCUGUGGACAGACAGAC [G7A U9G C13A G19A C37A U38C U43A C45A]	0.1
GGCAGAACUCAACACAGCGUGGCAAAGUGGCUGUGCCUAGACUGCU [G7A G36C C46U]	0.57
GGCAGAACUCAACACAGCGUGGCAAAGUGGCUCUGGCUAGACUUAC [G7A G33C G44U C45A]	0.02
GGCAGACCUCCACACAGCGUGGCAAAGUGGCUGUGGUUAGACUGCC [G7C A11C C37U]	0.02
GGCAGAACUCAACACAGCGUGGUAAAGUGGCUGUGGCUUGACUGCC [G7A C23U A39U]	0.03
GGCAGACCUCAACACGGCGUGGAAAAGUGGCUGUGGCUAGACUGCC [G7C A16G C23A]	0.02
GGCAGAACUCAACACAGCGUGGGAAAGUGGGUAUGGCUAGACUGCC [G7A C23G C31G G33A]	0.06
GGCAGAACUCAACACAGCACGGCAAAGUGGCUGUGGCUAGACUGCC [G7A G19A U20C]	0.07
GGCAGACCUCAACUCAGCGUGGCAAAGUGGCUGUGGCUAGACUGCA [G7C A14U C46A]	0.12
GGCAGAACUCAACACAGCGUGUCAAAGUGGCUGUGGCUAGAAUGCC [G7A G22U C42A]	0.18
GGCAGAACUCAACACAGCGUGGCAAAGUGCCUGUGGCUAGUCUGCC [G7A G30C A41U]	0.04
GGCAGACCUCAACCCAGCAUCGCAAAGUGGCUGUGGCUAGACGGCC [G7C A14C G19A G21C U43G]	0
GGCAGACCUCCACACAGCGUGGCAAAGUGGCGGUGGCUAGACUGCC [G7C A11C U32G]	0.05
GGCAGACCUCAUCGCAGCGUGGCAAAGUACCUGUGGCUAGAAUGAA [G7C A12U A14G G29A G30C C42A C45A C46A]	0.03

Variant	self-cleavage
GGCAGAACUCAACAUAGCGUGGCAAAGUGGCUGUGGCUAUACUGCC [G7A C15U G40U]	0.24
GGCAGACCUCAACACAGCGUGGCCAAGUGGCUGUGGCUAGAAUGCC [G7C A24C C42A]	0.04
GGCAGAACUCAACACAGCGUGGAAAAGUGGCUGUGGCUAUACUGCC [G7A C23A G40U]	0.15
GGCAGAACUCAACACAGCGUGGCAAAGCGGCUGUGGCUAAAAUGCC [G7A U28C G40A C42A]	0.05
GGCAGAACUCAACACAGCGUGUCAAUGUGACUGUGGCUAGACUGCC [G7A G22U A26U G30A]	0.15
GGCAGAACUCAACACAGCGAGGCAAAGUGGCUGAAGCUAGACAGCC [G7A U20A U34A G35A U43A]	0.03
GGCAGAACACGACACAGCGUGUCAAAGUGGCUGUGGCUAGACUGGC [G7A U9A A11G G22U C45G]	0.01
GGCAGAACACAACACUGCGUGGCAAAGUGGCUGUUCCUAGUCUGCU [G7A U9A A16U G35U G36C A41U C46U]	0.09
GGCAGAACACGACAUAGCUUGGCAAAGAAGCUGUGGCUAGACUGCC [G7A U9A A11G C15U G19U U28A G29A]	0.01
GGCAGACCUCUACACAGCGUGGCAAAGUGGCUGUGGCAAGACUGCC [G7C A11U U38A]	0.02
GGCAGAACUCAACACAGGGUGGCAAAGUCGCUUUGGCGAGACUACC [G7A C18G G29C G33U U38G G44A]	0.01
GGCAGACCUCGGCACACCGUGGCAAAGUGGCUGUGGCUAGACUGCC [G7C A11G A12G G17C]	0.01
GGCAGAACCCAACACAGCGUGGCAAAGUAGCUGUGGCUAGACUGCC [G7A U9C G29A]	0.07
GGCAGAACUCAACACAGUGUGGCAAAAUGGCUGUGGCUAGACUGCC [G7A C18U G27A]	0.12
GGCAGAACUCAACACAGCGUGGCAAACUGGCUGUGGCUAGACUGCU [G7A G27C C46U]	0.09
GGCAGAACACAACACAGCGUGGCAAAGUGGCUGUGGCCAGACUGCC [G7A U9A U38C]	0.18
GGCAGAACGCAACACAGCAUGGCAAAGUGGCUGUGGCUAGACUGUC [G7A U9G G19A C45U]	0.08
GGCAGACCUCGACACCGCGUGGCAAAGUGGCUGUGGCUAGACUGGC [G7C A11G A16C C45G]	0.03
GGCAGAACUCAACACAGCGUGGCAAAGUCGCUUUGGCUACACUGCC [G7A G29C G33U G40C]	0.18

Variant	self-cleavage
GGCAGAACUCAACACAGCGUGGCAAAGUGGCUGUGGUUAGACUGCA [G7A C37U C46A]	0
GGCAGAACUCAACACAGCGUGGCAAAGUUGCUGUGGCUAGACUGCA [G7A G29U C46A]	0.1
GGCAGAACUCAACACAGCGUGGCAAAGUGGCUCUGACUAGACUGCC [G7A G33C G36A]	0.06
GGCAGAACUCAACACAGCGUGGAAAAGUGGCUGUGGAUAUAUUGCC [G7A C23A C37A G40U C42U]	0.21
GGCAGAACUCAACACAGGGUGGCAAAGUGGCUAUGGCUAGACUGCC [G7A C18G G33A]	0.09
GGCAGAACUCAACACAGCGUGGCAAAGUGGCUGGGGCUAUACGGCC [G7A U34G G40U U43G]	0.35
GGCAGAACACAACUCAGCAUGUCAAAGUGGCUGUGCCUAGACUGCC [G7A U9A A14U G19A G22U G36C]	0.05
GGCAGAACUCAACACAGCACGGCAAAGUGGCUGUGGCUGGACUGCC [G7A G19A U20C A39G]	0.15
GGCAGAACUCAACACAGAGUCGCUAAGUAGCUGUGGCUAGACUGCC [G7A C18A G21C A24U G29A]	0.05
GGCAGAACUCAACACAGAGUGGCAAUGUGGCUGUGGCUAGACUGCC [G7A C18A A26U]	0.16
GGCAGAACUCAACACAGUUUGGCAAAGUGUCUGUGGCUAGACUUCC [G7A C18U G19U G30U G44U]	0.4
GGCAGAACUCAACACAGCGUGGCAAAGUGGAUGUCGCUAAACUGCC [G7A C31A G35C G40A]	0.11
GGCAGACCUCAGCACAGCGUGGCAAAGUGGCUGUGGCUAAACUGCC [G7C A12G G40A]	0.04
GGCAGACCUCAACUCAGCGAGGCAAAGUGGCUGUGGUUAGACUGCC [G7C A14U U20A C37U]	0.03
GGCAGAACUCAACACAGCGUGGCAAAGUGGCUGAGCCGAGAAUGCC [G7A U34A G36C U38G C42A]	0.12
GGCAGAACUCAACACAGAGUGGCAACGUGGAUGUGGCUAGACUGCC [G7A C18A A26C C31A]	0.01
GGCAGACCUCACCACAGCAUGGCAAAGUGGCUGUGGCUAGCCUGCC [G7C A12C G19A A41C]	0.01
GGCAGAACUCAACACAGCGUGGGAAAUUCGCUGUGGCUAGACUGCC [G7A C23G G27U G29C]	0.02
